# Measured values reported in the antibiotic and cytotoxicity screens of Wong et al. (2023).
# This is one part of the list.
# Test system: HSkMC (human skeletal muscle cells)
# Assay: cytotoxicity call (relative viability < 0.9)
# Details: 10 µM
row,Compound,cytotoxicity call
1,CO[C@@H]1CN(C)C(=O)c2cc(NS(=O)(=O)c3cn(C)cn3)ccc2OC[C@H](C)N(CC2CC2)C[C@H]1C,inactive
2,CN1CCC(=C2c3ccccc3Sc3ccccc32)CC1.O=C(O)C=CC(=O)O,inactive
3,C[C@H]1CCCCO[C@@H](CN(C)CC2CCCCC2)[C@@H](C)CN([C@@H](C)CO)C(=O)c2cc(NC(=O)c3ccccc3)ccc2O1,inactive
4,C[C@@H]1CN([C@@H](C)CO)C(=O)c2cc(Br)cnc2O[C@@H]1CN(C)S(=O)(=O)c1ccccc1,inactive
5,CCOC(=O)c1ccc(NC(=S)N[C@@H](NC(=O)c2ccc(Br)cc2)C(Cl)(Cl)Cl)cc1,active
6,C[C@@H]1CCCCO[C@H](CN(C)Cc2ccc(Cl)c(Cl)c2)[C@@H](C)CN([C@@H](C)CO)C(=O)c2cc(NC(=O)Nc3ccc(C(F)(F)F)cc3)ccc2O1,inactive
7,COc1ccc(CN(C)C[C@@H]2Oc3c(NC(=O)c4cc(C)nn4C)cccc3C(=O)N([C@H](C)CO)C[C@@H]2C)cc1,inactive
8,COc1ccccc1C#Cc1ccc2c(c1)O[C@H](CN(C)Cc1cccnc1)[C@@H](C)CN([C@@H](C)CO)S2(=O)=O,active
9,N#C[C@H]1N[C@@H](CO)[C@H]1c1ccccc1,inactive
10,COc1ccc(NC(=O)N(C)C[C@H]2Oc3c(NC(=O)c4ccc(-c5nccs5)cc4)cccc3C(=O)N([C@@H](C)CO)C[C@H]2C)cc1,inactive
11,COc1ccc(NC(=O)Nc2ccc3c(c2)C(=O)N([C@@H](C)CO)C[C@H](C)[C@@H](CN(C)Cc2ccc(C(=O)O)cc2)OCCCC[C@@H](C)O3)cc1,inactive
12,C[C@H]1CN([C@@H](C)CO)C(=O)c2cccc(NS(=O)(=O)c3cccs3)c2O[C@H]1CN(C)Cc1ccncc1,inactive
13,CCOC(=O)N1CCC(O)CC1,inactive
14,CCS(=O)(=O)N1CC[C@]2(CC1)CN(Cc1ccc(cc1)OC)[C@H](CO)c1c2c2ccc(cc2n1C)OC,inactive
15,CO[C@@H](CN(C)S(=O)(=O)c1cccc(Cl)c1)[C@@H](C)CN([C@@H](C)CO)S(=O)(=O)c1ccc(Cl)cc1,inactive
16,Cc1cc(C)c(C(=O)O)c(=O)[nH]1,inactive
17,CNC[C@@H]1Oc2ccc(NC(=O)Cn3cnnn3)cc2C(=O)N([C@H](C)CO)C[C@H]1C,inactive
18,COc1ccc(NC(=O)Nc2cccc3c2O[C@H](CN(C)CC2CCCCC2)[C@@H](C)CN([C@@H](C)CO)C3=O)cc1,inactive
19,COc1ccccc1CN1C(=O)c2ccccc2[C@@]2(Cc3ccccc3N(CCCN(C)C)C2=O)[C@@H]1c1ccc(CO)cc1,inactive
20,C[C@H]1CN([C@@H](C)CO)C(=O)Cc2cc(NC(=O)Nc3cccc4ccccc34)ccc2O[C@@H]1CN(C)C(=O)Nc1ccc(F)cc1,inactive
21,C[C@H]1CN([C@@H](C)CO)C(=O)Cc2cc(NC(=O)Nc3ccc(C(F)(F)F)cc3)ccc2O[C@H]1CN(C)C(=O)Nc1cccc2ccccc12,inactive
22,CC(=O)OC1CCC2(C)C3=C(CCC2C1(C)C)C1(C)CCC(C(C)CCC=C(C)C)C1(C)CC3 (stereo not given),inactive
23,CS(=O)(=O)N1CCCN(C(=O)CN2C(=O)COc3ccccc32)CC1,inactive
24,Cn1ccnc1,inactive
25,C[C@@H]1CN([C@@H](C)CO)C(=O)c2cccc(NS(=O)(=O)c3cn(C)cn3)c2O[C@@H]1CN(C)Cc1ccc(C(=O)O)cc1,inactive
26,C[C@@H]1CCCCO[C@H](CN(C)S(=O)(=O)c2ccc(F)cc2)[C@@H](C)CN([C@@H](C)CO)C(=O)c2cc(NC(=O)Cc3ccccc3)ccc2O1,inactive
27,C[C@@H]1CN([C@@H](C)CO)C(=O)c2cccc(NC(=O)Nc3cccc4ccccc34)c2O[C@H]1CN(C)S(=O)(=O)c1cccc(F)c1,inactive
28,Cc1cc(O)c2c(c1)C(=O)c1cccc(O)c1C2=O,inactive
29,COc1ccc2c3c([nH]c2c1)[C@H](CO)N(C[C@]13CCN(CC1)C(=O)Nc1ccccc1)C(=O)Nc1ccc(cc1)F,inactive
30,C=CCC[C@H](Cc1ccc(F)cc1)C(=O)OC[C@@H](NC(=O)[C@@H](CC=C)CC(=O)N(CCO)Cc1ccccc1)c1ccccc1,active

# Test system: HepG2
# Assay: cytotoxicity call (relative viability < 0.9)
# Details: 10 µM
row,Compound,cytotoxicity call
1,COc1ccc2c(c1)n(CCN)c(=O)n2C(=O)[C@@H]1C[C@H](C)CC[C@H]1C(C)C,active
2,COc1cccc(S(=O)(=O)N2C[C@@H](O)COC[C@H]3O[C@@H](CC(=O)N4CCOCC4)CC[C@@H]32)c1,inactive
3,C[C@H](CO)N1C[C@H](C)[C@H](CN(C)S(C)(=O)=O)Oc2cc(C#Cc3ccc(F)cc3)ccc2S1(=O)=O,active
4,COc1ccc(S(=O)(=O)N(C)C[C@H]2OCCCC[C@@H](C)Oc3ccc(NS(=O)(=O)c4cn(C)cn4)cc3C(=O)N([C@@H](C)CO)C[C@H]2C)cc1,inactive
5,C[C@H]1CN([C@@H](C)CO)C(=O)c2cc(NC(=O)C3CC3)ccc2O[C@H]1CN(C)S(=O)(=O)c1ccccc1,inactive
6,C[C@@H]1CCCCO[C@H](CN(C)Cc2ccc(C(=O)Nc3ccccc3N)cc2)[C@@H](C)CN([C@H](C)CO)C(=O)c2cc(NS(=O)(=O)c3cccs3)ccc2O1,inactive
7,Cc1ccc(S(=O)(=O)Nc2ccc3c(c2)CC(=O)N([C@@H](C)CO)C[C@H](C)[C@@H](CN(C)C(=O)NC(C)C)O3)cc1,inactive
8,C[C@H]1CN([C@@H](C)CO)C(=O)Cc2cc(NC(=O)CCN3CCOCC3)ccc2O[C@H]1CN(C)S(=O)(=O)c1cccs1,inactive
9,COc1ccc(CN(C)C[C@@H]2OCCCC[C@@H](C)Oc3ccc(NC(=O)Nc4ccc(OC)cc4)cc3C(=O)N([C@H](C)CO)C[C@H]2C)cc1,inactive
10,C[C@H]1CN([C@@H](C)CO)S(=O)(=O)c2ccc(Br)cc2O[C@H]1CN(C)CC1CCOCC1,inactive
11,CO[C@@H]1CN(C)C(=O)c2cc(NS(=O)(=O)c3cn(C)cn3)ccc2OC[C@H](C)N(CC2CC2)C[C@H]1C,inactive
12,CN1CCC(=C2c3ccccc3Sc3ccccc32)CC1.O=C(O)C=CC(=O)O,active
13,C[C@H]1CCCCO[C@@H](CN(C)CC2CCCCC2)[C@@H](C)CN([C@@H](C)CO)C(=O)c2cc(NC(=O)c3ccccc3)ccc2O1,inactive
14,C[C@@H]1CN([C@@H](C)CO)C(=O)c2cc(Br)cnc2O[C@@H]1CN(C)S(=O)(=O)c1ccccc1,inactive
15,CCOC(=O)c1ccc(NC(=S)N[C@@H](NC(=O)c2ccc(Br)cc2)C(Cl)(Cl)Cl)cc1,inactive
16,C[C@@H]1CCCCO[C@H](CN(C)Cc2ccc(Cl)c(Cl)c2)[C@@H](C)CN([C@@H](C)CO)C(=O)c2cc(NC(=O)Nc3ccc(C(F)(F)F)cc3)ccc2O1,active
17,COc1ccc(CN(C)C[C@@H]2Oc3c(NC(=O)c4cc(C)nn4C)cccc3C(=O)N([C@H](C)CO)C[C@@H]2C)cc1,inactive
18,COc1ccccc1C#Cc1ccc2c(c1)O[C@H](CN(C)Cc1cccnc1)[C@@H](C)CN([C@@H](C)CO)S2(=O)=O,inactive
19,N#C[C@H]1N[C@@H](CO)[C@H]1c1ccccc1,inactive
20,COc1ccc(NC(=O)N(C)C[C@H]2Oc3c(NC(=O)c4ccc(-c5nccs5)cc4)cccc3C(=O)N([C@@H](C)CO)C[C@H]2C)cc1,inactive

row,Compound,cytotoxicity call
1,COc1ccc(NC(=O)Nc2ccc3c(c2)C(=O)N([C@@H](C)CO)C[C@H](C)[C@@H](CN(C)Cc2ccc(C(=O)O)cc2)OCCCC[C@@H](C)O3)cc1,inactive
2,C[C@H]1CN([C@@H](C)CO)C(=O)c2cccc(NS(=O)(=O)c3cccs3)c2O[C@H]1CN(C)Cc1ccncc1,inactive
3,CCOC(=O)N1CCC(O)CC1,inactive
4,CCS(=O)(=O)N1CC[C@]2(CC1)CN(Cc1ccc(cc1)OC)[C@H](CO)c1c2c2ccc(cc2n1C)OC,inactive
5,CO[C@@H](CN(C)S(=O)(=O)c1cccc(Cl)c1)[C@@H](C)CN([C@@H](C)CO)S(=O)(=O)c1ccc(Cl)cc1,inactive
6,Cc1cc(C)c(C(=O)O)c(=O)[nH]1,inactive
7,CNC[C@@H]1Oc2ccc(NC(=O)Cn3cnnn3)cc2C(=O)N([C@H](C)CO)C[C@H]1C,inactive
8,COc1ccc(NC(=O)Nc2cccc3c2O[C@H](CN(C)CC2CCCCC2)[C@@H](C)CN([C@@H](C)CO)C3=O)cc1,inactive
9,COc1ccccc1CN1C(=O)c2ccccc2[C@@]2(Cc3ccccc3N(CCCN(C)C)C2=O)[C@@H]1c1ccc(CO)cc1,inactive
10,C[C@H]1CN([C@@H](C)CO)C(=O)Cc2cc(NC(=O)Nc3cccc4ccccc34)ccc2O[C@@H]1CN(C)C(=O)Nc1ccc(F)cc1,inactive
11,C[C@H]1CN([C@@H](C)CO)C(=O)Cc2cc(NC(=O)Nc3ccc(C(F)(F)F)cc3)ccc2O[C@H]1CN(C)C(=O)Nc1cccc2ccccc12,inactive
12,CC(=O)OC1CCC2(C)C3=C(CCC2C1(C)C)C1(C)CCC(C(C)CCC=C(C)C)C1(C)CC3 (stereo not given),inactive
13,CS(=O)(=O)N1CCCN(C(=O)CN2C(=O)COc3ccccc32)CC1,inactive
14,Cn1ccnc1,inactive
15,C[C@@H]1CN([C@@H](C)CO)C(=O)c2cccc(NS(=O)(=O)c3cn(C)cn3)c2O[C@@H]1CN(C)Cc1ccc(C(=O)O)cc1,inactive
16,C[C@@H]1CCCCO[C@H](CN(C)S(=O)(=O)c2ccc(F)cc2)[C@@H](C)CN([C@@H](C)CO)C(=O)c2cc(NC(=O)Cc3ccccc3)ccc2O1,active
17,C[C@@H]1CN([C@@H](C)CO)C(=O)c2cccc(NC(=O)Nc3cccc4ccccc34)c2O[C@H]1CN(C)S(=O)(=O)c1cccc(F)c1,inactive
18,Cc1cc(O)c2c(c1)C(=O)c1cccc(O)c1C2=O,inactive
19,COc1ccc2c3c([nH]c2c1)[C@H](CO)N(C[C@]13CCN(CC1)C(=O)Nc1ccccc1)C(=O)Nc1ccc(cc1)F,active
20,C=CCC[C@H](Cc1ccc(F)cc1)C(=O)OC[C@@H](NC(=O)[C@@H](CC=C)CC(=O)N(CCO)Cc1ccccc1)c1ccccc1,inactive
